Assay results taken from the supplement of paper PMC12462457.
Structures can show the parent of a compound that is named as a salt. ± gives the standard deviation of the averaged measurements. The list shows a part of the results.

Test system: OVCAR8
Test: cell count relative to DMSO vehicle (fold change); OVCAR8 is a high-grade serous ovarian cancer line and CX-5461 an RNA polymerase I inhibitor; higher = more surviving senescent cells (less killing)
Details: senescence inducer: CX-5461 3 µM 48 h, then 6 d recovery (CX senescent), exposure time 24 h

| Structure (SMILES) | cell count (compound dose 1 µM) | cell count (compound dose 5 µM) |
| --- | --- | --- |
| N#Cc1c(N2CCCC2)nc(N)c2c(N)nc(N3CCCC3)cc12 | 1.14 ± 0.16 | 1.24 ± 0.27 |
| COC(=O)CC[C@H](NC(=O)[C@H](Cc1c[nH]c2ccccc12)NC(=O)OCc1ccccc1)C(=O)N[C@@H](Cc1cnc[nH]1)C(=O)N[C@@H](CC(=O)OC)C(=O)CF | 1.1 ± 0.15 | 1.05 ± 0.16 |
| Oc1ccc(-c2nc(-c3ccc(F)cc3)c(-c3ccncc3)[nH]2)cc1 | 1.06 ± 0.032 | 1.01 ± 0.21 |
| Nc1ccc(-c2ccc3ncc4ccc(=O)n(-c5cccc(C(F)(F)F)c5)c4c3c2)cn1 [Torin 2] | 0.236 ± 0.059 | 0.153 ± 0.03 |
| COc1c(/C=C/C(=O)c2ccc(O)c(CC=C(C)C)c2)ccc(O)c1O [Licochalcone D] | 1.08 ± 0.062 | 0.927 ± 0.017 |
| CC(C)C[C@H](NC(=O)[C@H](Cc1ccccc1)C[C@@H](O)[C@H](Cc1ccccc1)NC(=O)OC(C)(C)C)C(=O)N[C@@H](Cc1ccccc1)C(N)=O | 1.17 ± 0.1 | 1.17 ± 0.17 |
| CC[C@H](CC#N)OC(=O)N[C@@H](C)c1cccc(NC(=O)Nc2ccc(-c3cnco3)c(OC)c2)c1 | 0.993 ± 0.2 | 1 ± 0.16 |
| CN1CCC(Nc2nc(Nc3ccc(Oc4ccccc4)cc3)c3c(=O)[nH]cc(Br)c3n2)CC1 | 1.15 ± 0.18 | 1.19 ± 0.18 |
| CC(=O)O[C@H]1C(=O)[C@@]2(C)[C@H]([C@H](OC(=O)c3ccccc3)[C@]3(O)C[C@H](OC(=O)[C@H](O)[C@@H](NC(=O)c4ccccc4)c4ccccc4)C(C)=C1C3(C)C)[C@]1(OC(C)=O)CO[C@@H]1C[C@@H]2O | 1.17 ± 0.11 | 1.168 ± 0.0085 |
| COc1cccc2c1C(=O)c1c(O)c3c(c(O)c1C2=O)C[C@@](O)(C(=O)CO)C[C@@H]3O[C@H]1C[C@H](N)[C@@H](O)[C@H](C)O1 [Epirubicin (hydrochloride)] | 1.22 ± 0.27 | 0.736 ± 0.013 |
| NC(=O)c1ccc(-c2nc(-c3ccccn3)c(-c3ccc4c(c3)OCO4)[nH]2)cc1 | 0.966 ± 0.16 | 1.03 ± 0.23 |
| CNC(=O)c1ccc2c(c1)ncn2-c1ccc(CC(=O)OC(C)(C)C)cc1 | 0.984 ± 0.19 | 0.952 ± 0.059 |
| CC(C)(C)c1ccc(S(=O)(=O)/C=C/C#N)cc1 | 0.744 ± 0.11 | 0.0645 ± 0.04 |
| COc1ccc2cc(C(C)C(=O)Oc3ccc(C(N)=S)cc3)ccc2c1 (stereo not drawn) | 1.09 ± 0.23 | 1.15 ± 0.21 |
| COc1ccc(-c2nc(-c3cc(C(F)(F)F)cc(C(F)(F)F)c3)n(Cc3ccc(C(N)=O)cc3)c2-c2ccc(OC)cc2)cc1 [Apoptozole] | 1.04 ± 0.018 | 1.15 ± 0.066 |
| Cc1ccc2ccc(C(Nc3ccccc3)c3ccccc3)c(O)c2n1 (stereo not drawn) | 1.2 ± 0.22 | 1.16 ± 0.21 |
| C[C@H]1[C@H](C)CC[C@]2(C(=O)O[C@@H]3O[C@H](CO[C@@H]4O[C@H](CO)[C@@H](O[C@@H]5O[C@H](C)[C@H](O)[C@@H](O)[C@H]5O)[C@H](O)[C@H]4O)[C@@H](O)[C@H](O)[C@H]3O)CC[C@]3(C)C(=CC[C@@H]4[C@@]5(C)C[C@@H](O)[C@H](O)[C@@](C)(CO)[C@@H]5CC[C@]43C)[C@H]12 [Asiaticoside] | 1.16 ± 0.074 | 1.03 ± 0.18 |
| CCOC(=O)[C@@H](N)CCC(=O)N[C@@H](CSCc1ccccc1)C(=O)N[C@@H](C(=O)OCC)c1ccccc1 [Ezatiostat] | 1.14 ± 0.26 | 0.998 ± 0.18 |
| Cc1sc2c(c1C)C(c1ccc(Cl)cc1)=N[C@@H](CC(=O)NCCCCCCCCNC(=O)COc1cccc3c1C(=O)N(C1CCC(=O)NC1=O)C3=O)c1nnc(C)n1-2 (stereo partly drawn) | 1.14 ± 0.2 | 1.1 ± 0.1 |
| CC(=O)N[C@@H](C)C(=O)N[C@@H](CO)C(=O)NC(C)(C)C(=O)N[C@@H](CC(C)C)C(=O)N[C@@H](CCCN=C(N)N)C(=O)N[C@@H](CCCCN)C(=O)N[C@@H](CC(C)C)C(=O)NC(C)(C)C(=O)N[C@@H](CCCCN)C(=O)N[C@@H](CCCN=C(N)N)C(=O)N[C@@H](CC(C)C)C(=O)N[C@@H](CC(C)C)C(N)=O | 1.13 ± 0.23 | 0.954 ± 0.089 |

| Structure (SMILES) | cell count (compound dose 1 µM) | cell count (compound dose 5 µM) |
| --- | --- | --- |
| Cn1cc(/C=C2\C(=O)Nc3cccnc32)c2ccccc21 | 0.93 ± 0.074 | 1.073 ± 0.0057 |
| CN1C(=O)C(Cc2c[nH]c3ccccc23)NC1=S (stereo not drawn) [Necrostatin-1] | 0.987 ± 0.18 | 0.977 ± 0.26 |
| CCC[C@H](N[C@H]1CCc2cc(F)cc(F)c2C1)C(=O)Nc1cn(C(C)(C)CNCC(C)(C)C)cn1 [Nirogacestat] | 1.18 ± 0.07 | 1.21 ± 0.071 |
| Cc1cc2c(s1)Nc1ccccc1N=C2N1CCN(C)CC1 | 1.19 ± 0.096 | 1.15 ± 0.031 |
| CCN(CC)CCOc1ccc(Nc2ncc3cc(-c4c(Cl)cccc4Cl)c(=O)n(C)c3n2)cc1 | 0.0835 ± 0.0035 | 0.038 ± 0.014 |
| CCN1CCN(C(c2ccc(C(F)(F)F)cc2)c2ccc3cccnc3c2O)CC1 (stereo not drawn) | 1.19 ± 0.058 | 1.35 ± 0.021 |
| O=C(O)c1ccccc1O | 1.04 ± 0.19 | 1.12 ± 0.16 |
| Cc1c(-c2c(-c3ccc(F)o3)sc3ncnc(O[C@H](Cc4ccccc4OCc4ccnn4CC(F)(F)F)C(=O)O)c23)ccc(OCCN2CCN(C)CC2)c1Cl | 1.12 ± 0.071 | 1.07 ± 0.047 |
| O=C(O)c1cc(/N=N/c2ccc(S(=O)(=O)Nc3ccccn3)cc2)ccc1O | 1.11 ± 0.23 | 1.27 ± 0.13 |
| COc1ccc(C2=N[C@@H](c3ccc(Cl)cc3)[C@@H](c3ccc(Cl)cc3)N2C(=O)N2CCNC(=O)C2)c(OC(C)C)c1 [Nutlin-3a] | 1.03 ± 0.1 | 1.01 ± 0.087 |
| CCCSc1ccc2[nH]c(NC(=O)OC)nc2c1 | 1.1 ± 0.074 | 1.07 ± 0.1 |
| O=C(CCCCCCC(=O)Nc1cccnc1)NO [Pyroxamide] | 1.14 ± 0.23 | 1.25 ± 0.029 |
| CCc1ccc(CCOc2ccc(CC3SC(=O)NC3=O)cc2)nc1 (stereo not drawn) | 1.04 ± 0.053 | 0.948 ± 0.084 |
| CN(C)c1nc2c(Br)c(Br)c(Br)c(Br)c2n1CC(=O)O | 1.15 ± 0.11 | 1.16 ± 0.19 |
| CCC(C)(C)C(=O)C(=O)N1CCCC[C@H]1C(=O)O[C@H](CCc1ccc(OC)c(OC)c1)c1cccc(NC(=O)CCC(=O)O)c1 [SLF-amido-C2-COOH] | 1.15 ± 0.18 | 1.22 ± 0.45 |
| O=C(O)CCc1nc(-c2ccccc2)c(-c2ccccc2)o1 | 1.1 ± 0.15 | 1.18 ± 0.24 |
| CN(CCCCCCNc1ccnc2cc(Cl)ccc12)CCCCCCNc1ccnc2cc(Cl)ccc12 | 0.954 ± 0.0071 | 0.118 ± 0.005 |
| O=C(NOCC1CC1)c1ccc(F)c(F)c1Nc1ccc(I)cc1Cl | 1.25 ± 0.11 | 1.08 ± 0.019 |
| Nc1nc(F)nc2c1ncn2[C@@H]1O[C@H](COP(=O)(O)O)[C@@H](O)[C@@H]1O [Fludarabine (phosphate)] | 1.11 ± 0.45 | 1.23 ± 0.46 |
